# Data reported in article PMC4831272.
# Protein sequences, listed by entry. Tags and fused reporters are not part of them. Lines headed by an entry give the natural chain unless they say otherwise; changes in a name come on top. Chains listed by the source or under a name are the forms on record and can include a tag or linker. Residues count along the entry.
# UniProt Q9NPQ8: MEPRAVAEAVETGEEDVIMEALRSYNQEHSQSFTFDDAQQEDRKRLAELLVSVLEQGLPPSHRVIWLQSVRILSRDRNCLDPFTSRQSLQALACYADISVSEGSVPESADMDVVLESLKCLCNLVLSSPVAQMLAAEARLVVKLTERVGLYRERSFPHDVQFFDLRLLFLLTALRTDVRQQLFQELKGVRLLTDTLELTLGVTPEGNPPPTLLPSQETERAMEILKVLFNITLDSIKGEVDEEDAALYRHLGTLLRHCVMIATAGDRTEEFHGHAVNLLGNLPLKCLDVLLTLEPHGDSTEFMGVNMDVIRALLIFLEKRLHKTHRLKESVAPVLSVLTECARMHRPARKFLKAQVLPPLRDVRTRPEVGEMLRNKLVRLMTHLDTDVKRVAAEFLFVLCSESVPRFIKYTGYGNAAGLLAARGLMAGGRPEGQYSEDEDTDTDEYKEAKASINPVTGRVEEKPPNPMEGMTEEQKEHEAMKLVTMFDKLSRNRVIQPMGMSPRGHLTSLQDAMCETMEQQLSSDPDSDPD
# UniProt Q14344: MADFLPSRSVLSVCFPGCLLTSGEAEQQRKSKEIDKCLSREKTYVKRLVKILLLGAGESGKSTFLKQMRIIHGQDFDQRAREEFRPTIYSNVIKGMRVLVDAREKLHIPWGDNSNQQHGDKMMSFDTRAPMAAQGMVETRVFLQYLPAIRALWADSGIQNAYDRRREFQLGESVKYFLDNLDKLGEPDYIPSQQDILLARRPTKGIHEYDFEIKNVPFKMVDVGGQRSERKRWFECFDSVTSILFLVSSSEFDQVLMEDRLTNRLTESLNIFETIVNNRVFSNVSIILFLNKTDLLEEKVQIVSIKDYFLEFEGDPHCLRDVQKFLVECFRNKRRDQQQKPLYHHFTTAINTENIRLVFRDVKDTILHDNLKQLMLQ
# FS-tagged Gα13 deletion construct C (aa 224–377): residues 224-377 of Q14344
# FS-tagged Gα13 deletion construct D4 (aa 259–377): residues 259-377 of Q14344
# FS-tagged Gα13 deletion construct D5 (aa 302–377): residues 302-377 of Q14344
# FS-tagged Gα13 deletion construct D8 (302–340): residues 302-340 of Q14344
# FS-tagged Gα13 deletion construct D6 (342–377): residues 342-377 of Q14344
# UniProt P29992: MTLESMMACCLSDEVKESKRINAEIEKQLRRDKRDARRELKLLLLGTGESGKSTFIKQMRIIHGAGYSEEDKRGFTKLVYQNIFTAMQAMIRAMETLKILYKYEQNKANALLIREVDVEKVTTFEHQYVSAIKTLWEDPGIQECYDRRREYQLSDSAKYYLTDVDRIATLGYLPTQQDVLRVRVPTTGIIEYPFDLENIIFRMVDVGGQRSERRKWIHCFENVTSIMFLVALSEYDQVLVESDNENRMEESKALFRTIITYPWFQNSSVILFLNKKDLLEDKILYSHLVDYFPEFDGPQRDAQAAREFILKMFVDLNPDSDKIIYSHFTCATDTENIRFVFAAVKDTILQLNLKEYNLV
# UniProt Q03113: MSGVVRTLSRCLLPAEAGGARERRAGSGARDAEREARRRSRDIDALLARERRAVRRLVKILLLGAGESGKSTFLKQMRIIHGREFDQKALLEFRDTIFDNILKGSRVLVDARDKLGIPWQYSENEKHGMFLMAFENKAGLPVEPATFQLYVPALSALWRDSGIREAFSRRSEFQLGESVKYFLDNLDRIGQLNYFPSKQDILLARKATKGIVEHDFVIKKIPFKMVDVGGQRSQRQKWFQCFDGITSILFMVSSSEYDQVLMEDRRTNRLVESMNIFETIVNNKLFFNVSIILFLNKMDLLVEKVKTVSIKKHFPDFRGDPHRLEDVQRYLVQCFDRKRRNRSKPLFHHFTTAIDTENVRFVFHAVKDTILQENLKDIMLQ
# UniProt P04899: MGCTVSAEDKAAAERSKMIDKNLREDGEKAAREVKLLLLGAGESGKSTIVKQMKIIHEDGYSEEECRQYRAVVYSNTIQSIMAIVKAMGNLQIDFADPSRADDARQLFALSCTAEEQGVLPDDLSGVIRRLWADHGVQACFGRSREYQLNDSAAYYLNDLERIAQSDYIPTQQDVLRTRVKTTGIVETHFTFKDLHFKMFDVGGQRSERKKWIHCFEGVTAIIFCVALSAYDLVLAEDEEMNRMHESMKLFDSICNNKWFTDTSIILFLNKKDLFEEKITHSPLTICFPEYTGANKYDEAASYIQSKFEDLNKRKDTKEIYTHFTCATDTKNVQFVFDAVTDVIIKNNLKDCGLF
# UniProt P50148: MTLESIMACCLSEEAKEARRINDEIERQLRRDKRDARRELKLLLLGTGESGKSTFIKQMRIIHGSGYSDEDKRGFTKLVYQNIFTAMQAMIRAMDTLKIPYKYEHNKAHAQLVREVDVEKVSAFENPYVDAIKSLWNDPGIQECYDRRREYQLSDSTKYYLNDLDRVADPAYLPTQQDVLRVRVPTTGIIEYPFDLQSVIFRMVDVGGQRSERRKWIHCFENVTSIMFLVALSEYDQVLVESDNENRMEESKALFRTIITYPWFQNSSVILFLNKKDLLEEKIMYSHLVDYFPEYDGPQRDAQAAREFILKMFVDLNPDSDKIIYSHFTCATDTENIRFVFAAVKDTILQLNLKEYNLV
# Results are given in words; binding and its absence hold for the method and conditions named. For some of these results: In cells and extracts the contact can be indirect. Some entries that bind do so weakly or less than the wild type.
# How the values were obtained:
# [1] = molecular target: HA-epitope tagged Ric-8A (UniProt Q9NPQ8); assay: co-IP; HA-Ric-8A transiently expressed in SKOV3 cells, 48 hrs; immunoprecipitated with antibodies to HA-epitope; immunoblot for endogenous Gα subunits
# [2] = molecular target: Ric-8A, ectopically expressed in HEK293 cells (UniProt Q9NPQ8); assay: co-IP; HEK293 cells transfected with Ric-8A and Gα13, treated with DMSO or 10 µM Src kinase inhibitor (SI1 or PP2) overnight; Ric-8A immunoprecipitated, immunoblot for Gα13
# [3] = molecular target: Ric-8A (Resistance to inhibitors of cholinesterase 8 homolog A), endogenous (human (endogenous in HEK293, SKOV3, HeyA8)) (UniProt Q9NPQ8); assay: co-IP; endogenous proteins; 1 mg lysate of SKOV3 or HeyA8 cells with 1 µg normal mouse IgG, Gα13 antibody (clone 73.1) or Ric-8A antibody (clone 3G3), Protein G EZview beads 16 hrs, 4°C; immunoblot
# [4] = molecular target: FS-tagged Gα13 deletion construct C (aa 224–377) (human) (UniProt Q14344); assay: co-IP; HEK293 cells transfected with FS-tagged Gα13 constructs, 48 h; 1 mg lysate with anti-FLAG M2 EZview beads, 5 hours, 4°C; immunoblot for endogenous Ric-8A
# [5] = molecular target: FS-tagged Gα13 deletion construct D4 (aa 259–377) (human) (UniProt Q14344); assay: as above
# [6] = molecular target: FS-tagged Gα13 deletion construct D5 (aa 302–377) (human) (UniProt Q14344); assay: as above
# [7] = molecular target: FS-tagged Gα13 deletion construct D6 (342–377) (human) (UniProt Q14344); assay: as above
# [8] = molecular target: FS-tagged Gα13 deletion construct D8 (302–340) (human) (UniProt Q14344); assay: as above
# [9] = molecular target: FS-tagged Gα13Q226L (constitutively active mutant of Gα13) (human) (UniProt Q14344); assay: as above
# [10] = molecular target: FS-tagged wild-type Gα13 (human) (UniProt Q14344); assay: as above
# [11] = molecular target: Gα13, endogenous (human (endogenous in SKOV3, HeyA8)) (UniProt Q14344); assay: co-IP; endogenous proteins; 1 mg lysate of SKOV3 or HeyA8 cells with 1 µg normal mouse IgG, Gα13 antibody (clone 73.1) or Ric-8A antibody (clone 3G3), Protein G EZview beads 16 hrs, 4°C; immunoblot
# [12] = molecular target: FS-tagged Gα13Q226L (constitutively active mutant of Gα13) (human) (UniProt Q14344); assay: tandem affinity purification with immunoblot; lysates of vector control and Gα13QL transfectants (HEK293) taken through the second affinity purification; proteins eluted by FLAG peptide, immunoblot with Ric-8A antibodies
substance,measurement,setting,value
"Gα11, endogenous (from UniProt P29992 1-359)",binding,[1],binds
"Gα12, endogenous (from UniProt Q03113 1-381)",binding,[1],binds
"Gα13, co-expressed with Ric-8A in HEK293 cells (from UniProt Q14344 1-377)",binding,[2],binds
"Gα13, endogenous (from UniProt Q14344 1-377)",binding,[1],binds
same,binding,[3],binds
"Gαi2, endogenous (from UniProt P04899 1-355)",binding,[1],binds weakly
"Gαq, endogenous (from UniProt P50148 1-359)",binding,[1],binds
"Ric-8A (Resistance to inhibitors of cholinesterase 8 homolog A), endogenous (from UniProt Q9NPQ8 1-531)",binding,[4],binds
same,binding,[5],binds
same,binding,[6],binds
same,binding,[7],binds
same,binding,[8],no binding
same,binding,[9],binds
same,binding,[10],binds
same,binding,[11],binds
same,binding,[12],binds
